Experimental data: the supplement of paper PMC10441789
The list shows a part of the results. Antibody binding of pooled human sera (four to six donors per pool; dilution not stated) to peptides of the Trypanosoma cruzi antigen TSSA on microarrays. Quantile-normalised fluorescence in arbitrary units, mean of duplicate arrays; higher = more binding. No active / inactive call. The uninfected pools are read here as the healthy donors of the same country. The strongest signals lie near the top of the scale (about 60,000).

Tests used:
Test in all cases: antibody binding signal (normalised fluorescence) (arbitrary fluorescence units); higher = stronger serum antibody binding to peptide
[1] = test system: pooled sera of chronic Chagas disease patients, Bolivia
Method: (§1)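 Microarray of 15-residue peptides over residues 30-55 of Trypanosoma cruzi TSSAII, each with 1 to 10 substitutions at naturally variable positions, probed with one serum pool per country.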

[2] = test system: pooled sera of chronic Chagas disease patients, Brazil
Method: as §1

[3] = test system: pooled sera of chronic Chagas disease patients, Colombia
Method: as §1

[4] = test system: pooled sera of chronic Chagas disease patients, Mexico
Method: as §1

[5] = test system: pooled sera of chronic Chagas disease patients, USA
Method: as §1

[6] = test system: pooled sera of uninfected people, Argentina
Method: as §1

[7] = test system: pooled sera of uninfected people, Bolivia
Method: as §1

[8] = test system: pooled sera of uninfected people, Brazil
Method: as §1

[9] = test system: pooled sera of uninfected people, Colombia
Method: as §1

[10] = test system: pooled sera of uninfected people, Mexico
Method: as §1

[11] = test system: pooled sera of uninfected people, USA
Method: as §1

Row | Sequence | antibody binding signal [1] | antibody binding signal [2] | antibody binding signal [3] | antibody binding signal [4] | antibody binding signal [5] | antibody binding signal [6] | antibody binding signal [7] | antibody binding signal [8] | antibody binding signal [9] | antibody binding signal [10] | antibody binding signal [11]
1 | TDKKAAAGEAPSPSG | 336 | 4030 | 351 | 306 | 10200 | 142 | 109 | 192 | 88.7 | 124 | 123
2 | ENKTAAGGAPSPSGA | 1620 | 523 | 7090 | 708 | 1160 | 431 | 206 | 511 | 186 | 297 | 223
3 | GKEKKTATGEAPSPS | 4150 | 5040 | 2770 | 3230 | 15100 | 168 | 84.5 | 91.1 | 73.6 | 73 | 95
4 | GKEKKTAAGEAPSQP | 3040 | 23300 | 1880 | 1810 | 5740 | 233 | 123 | 103 | 440 | 85.1 | 537
5 | STPPSGKDKKPAAGG | 2370 | 13200 | 416 | 52400 | 4270 | 583 | 374 | 144 | 171 | 149 | 278
6 | TPPSGTENKPAAGEA | 46000 | 50000 | 350 | 7560 | 29100 | 9980 | 1270 | 2380 | 552 | 453 | 660
7 | DNKAAAGETPSPPGA | 343 | 10700 | 254 | 265 | 900 | 139 | 308 | 176 | 122 | 330 | 411
8 | TENKAAAGETPSPPG | 371 | 11900 | 213 | 241 | 2600 | 92.5 | 182 | 126 | 83.8 | 142 | 1050
9 | SGTEKKTAAGGTPSP | 215 | 608 | 14700 | 1380 | 2390 | 127 | 434 | 1260 | 315 | 304 | 210
10 | SGKDKKTATGETPSP | 330 | 512 | 529 | 637 | 5610 | 282 | 124 | 89.9 | 241 | 104 | 417
11 | TSSTPPSGKENKTAA | 3760 | 11400 | 1570 | 5220 | 3340 | 3930 | 961 | 170 | 639 | 356 | 484
12 | PSGKDKKPAAGGTPS | 1930 | 4330 | 6930 | 7420 | 6270 | 149 | 388 | 394 | 124 | 141 | 115
13 | GTENKPAAGGTPSQS | 3520 | 5690 | 1260 | 2050 | 963 | 467 | 2130 | 1280 | 393 | 584 | 215
14 | TSSTPPSGKENKPAA | 18600 | 27500 | 859 | 11100 | 14300 | 5650 | 1960 | 269 | 640 | 308 | 898
15 | GKDNKTATGEAPSQS | 13900 | 20200 | 5840 | 4080 | 21200 | 336 | 245 | 151 | 371 | 123 | 135
16 | PPSGKENKAAAGETP | 6880 | 3930 | 1190 | 2130 | 4600 | 3550 | 2300 | 242 | 1230 | 268 | 337
17 | PPSGTENKAAAGETP | 38700 | 45500 | 297 | 2670 | 11700 | 1600 | 522 | 212 | 308 | 262 | 543
18 | GTDKKTATGETPSPP | 556 | 1410 | 1260 | 585 | 8050 | 283 | 294 | 240 | 119 | 257 | 605

Row | Sequence | antibody binding signal [1] | antibody binding signal [2] | antibody binding signal [3] | antibody binding signal [4] | antibody binding signal [5] | antibody binding signal [6] | antibody binding signal [7] | antibody binding signal [8] | antibody binding signal [9] | antibody binding signal [10] | antibody binding signal [11]
19 | KENKAAAGETPSPPG | 199 | 9910 | 214 | 210 | 2750 | 136 | 164 | 102 | 110 | 132 | 948
20 | PPSGKDKKPATGEAP | 18400 | 42500 | 981 | 23100 | 29100 | 1030 | 713 | 166 | 281 | 116 | 167
21 | PSGTENKPAAGEAPS | 40000 | 46300 | 1420 | 3990 | 21600 | 1540 | 1680 | 403 | 338 | 542 | 512
22 | DKKTATGEAPSQSGA | 16400 | 16300 | 162 | 427 | 18900 | 221 | 129 | 156 | 113 | 232 | 194
23 | TEKKTAAGEAPSPPG | 464 | 664 | 680 | 623 | 8620 | 153 | 128 | 292 | 2060 | 278 | 192
24 | GTEKKTAAGGTPSQP | 338 | 330 | 10000 | 541 | 1960 | 259 | 395 | 717 | 281 | 675 | 201
25 | GKEKKAAAGGAPSPS | 180 | 240 | 3100 | 1810 | 1410 | 125 | 87.2 | 102 | 132 | 104 | 97.6
26 | GTEKKAATGEAPSQS | 26800 | 30700 | 1020 | 1610 | 26300 | 449 | 759 | 160 | 615 | 189 | 157
27 | PPSGKENKTAAGGTP | 731 | 4040 | 3590 | 4520 | 4910 | 3560 | 1240 | 278 | 551 | 761 | 270
28 | TISTPPSGKDKKTAT | 403 | 723 | 224 | 37900 | 530 | 129 | 273 | 98 | 112 | 91.8 | 93.4
29 | TENKTAAGEAPSQPG | 25100 | 41900 | 204 | 263 | 8870 | 226 | 200 | 227 | 161 | 162 | 159
30 | KENKAAAGGTPSPPG | 232 | 200 | 1140 | 145 | 920 | 102 | 77.1 | 306 | 135 | 78.8 | 99.3
31 | TISTPPSGKEKKAAA | 198 | 498 | 632 | 21100 | 648 | 757 | 577 | 137 | 290 | 76.2 | 238
32 | GKDNKPAAGGTPSQP | 201 | 1910 | 1080 | 596 | 515 | 346 | 472 | 433 | 179 | 386 | 93.2
33 | SGKDKKPAAGEAPSQ | 1740 | 11400 | 1540 | 1070 | 12000 | 120 | 86.2 | 89.8 | 1370 | 60.3 | 83.4
34 | STPPSGKEKKPAAGE | 4470 | 2550 | 513 | 31800 | 798 | 1030 | 1050 | 128 | 622 | 107 | 342
35 | KAAAGETPSPSGASS | 337 | 1480 | 278 | 2850 | 925 | 215 | 300 | 103 | 113 | 187 | 527
36 | GTDNKPATGGTPSPP | 715 | 42900 | 1320 | 439 | 519 | 210 | 675 | 583 | 583 | 423 | 156
